# Measurements from PubChem BioAssay (NCATS).
# Inconclusive means that the source gave no clear call. Such entries were picked first, then a sample of the others. For some assays here: Potencies beside an inconclusive call are fits to weak or partial responses and may not hold up. For some assays here: A note “side channel” means that the fit belongs to a control or component signal, not to the main read-out. Activity calls are given as the source filed them. Unless noted, calls come from the whole dose curve; as a rule, active = well fitted curve in the direction sought with a large enough effect; inconclusive = small, poorly fitted or top-dose-only effect, or another doubt; inactive = no such curve, though single readings can be large; an effect the other way counts as inactive or inconclusive.
# Columns and labels:
# [1] = target: Glucagon-like peptide 1 receptor (Homo sapiens) (UniProt P43220); test: qHTS of GLP-1 Receptor Agonists: LOPAC Validation (AID 624148); details: GLP-1R agonist cell assay; note: potency is the fitted concentration of half-maximal effect
# Sequence of UniProt P43220 (P43220 whole entry, looked up): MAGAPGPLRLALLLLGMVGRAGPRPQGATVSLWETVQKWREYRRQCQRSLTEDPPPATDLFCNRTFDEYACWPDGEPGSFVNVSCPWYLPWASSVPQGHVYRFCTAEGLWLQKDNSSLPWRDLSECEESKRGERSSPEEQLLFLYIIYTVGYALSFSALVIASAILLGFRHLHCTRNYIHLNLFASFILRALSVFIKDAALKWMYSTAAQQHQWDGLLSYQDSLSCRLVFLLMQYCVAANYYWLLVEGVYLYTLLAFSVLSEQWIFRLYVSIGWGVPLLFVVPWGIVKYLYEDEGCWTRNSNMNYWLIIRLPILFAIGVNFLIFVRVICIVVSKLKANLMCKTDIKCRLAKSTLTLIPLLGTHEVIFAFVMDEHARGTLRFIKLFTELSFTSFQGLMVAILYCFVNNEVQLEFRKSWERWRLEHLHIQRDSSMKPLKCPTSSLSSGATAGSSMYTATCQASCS
# Outline: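 HEK293 cells stably co-expressing a cAMP-responsive luciferase reporter and a hypersensitive GLP-1R were plated 12 h at 37 °C and exposed to compounds for 4-6 hr at 37 °C, 5% CO2. Luminescence was read 12 min after adding detection reagent.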
# [2] = Validation qHTS assay for inhibitors of Activation Induced Cytidine Deaminase (AID): UDG Counterscreen signal (AID 1347427); details: biochemical UDG counterscreen, fluorescence signal; series mostly up to 115 µM; note: 0% is about no effect
# Outline: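 Fluorescence at 560 nm excitation, 665 nm emission reports UDG signal after 250 mM NaOH (2x) addition and 30 min. Enzymes (AID 1 uM, UDG 2 U/mL, at 4/3x) preincubated 10 min with compound, then 4 h with 4x 250 nM DJC20/DJC23 substrate at room temperature.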
# [3] = Cell Proliferation Assay against the TMD8 Cell Line (Caspase readout at 16 hrs) (AID 651712); details: TMD8 lymphoma cells, caspase activation luminescence; caspase activation: at 46.1 µM (top of the series); note: potency is the fitted concentration of half-maximal effect
# Outline: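 16 h, 37 °C, TMD8 (500 cells/well), RPMI/5% FBS no phenol red; Caspase-Glo 3/7, 15 min RT, luminescence; %act: DMSO 0, bortezomib 9.2 uM final 100.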
# [4] = Cell Proliferation Assay against the TMD8 Cell Line (Caspase readout at 8 hrs) (AID 651713); details: TMD8 lymphoma cells, caspase activation luminescence; caspase activation: at 46.1 µM (top of the series);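 note: 0% = DMSO and 100% = 9.2 µM bortezomib caspase signal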
# Outline: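 Caspase 3/7 activation in ABC DLBCL TMD8 cells is measured by luminescence after an 8 h compound exposure at 37C. Relative light units are scaled between DMSO (0%) and 9.2 uM final bortezomib (100%).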
# [5] = qHTS of pediatric cancer cell lines to identify multiple opportunities for drug repurposing: Confirmatory screen for A673 cells (AID 1347110); details: A673 Ewing sarcoma cell viability; series mostly up to 45.9 µM;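 note: potency is the fitted concentration of half-maximal effect; cells exposed to compound for 48 h before the viability read; nearly all actives have a fitted effect of over 65% in size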
# Outline: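 A673 cells at 500-1,000 cells/well were dosed 5 h after plating, in dilution series up to 46 uM final; primary runs used 8 or 11 points and confirmatory runs used 11 points. Viability was read by CellTiter-Glo luminescence after 48 h, against DMSO and 2.3 uM bortezomib controls.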
# [6] = Quantitative High-Throughput drug screen in 47 multiple myeloma cell lines against the NCATS MIPE library collection: ARD_JJKsccE7 cell viability assay (AID 1918929; note: potency is the fitted concentration of half-maximal effect); details: ARD myeloma cell line viability, CellTiter-Glo, 48 h; series mostly up to 45.8 µM
# Outline: (§1)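 CellTiter-Glo luminescence (ATP) after 48 h compound exposure, 37C/5% CO2; 500 cells/well; MIPE 4.0 approved/investigational drugs pinned in; DMSO = 100%, media only = 0% viability.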
# [7] = Quantitative High-Throughput drug screen in 47 multiple myeloma cell lines against the NCATS MIPE library collection: KMS26_JCRB cell viability assay (AID 1918975); details: KMS26 myeloma cells viability, CellTiter-Glo ATP, 48 h; viability (% of DMSO): at 45.8 µM (top of the series); note: potency is the fitted concentration of half-maximal effect; nearly all actives have a fitted effect of over 45% in size
# Outline: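 qHTS of the MIPE 4.0 collection: 500 myeloma cells/well, 48 h drug exposure at 37C in 5% CO2, then CellTiter-Glo for 5 min at room temperature before luminescence reading.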
# [8] = Cell Viability - SH-SY5Y (AID 544); details: SH-SY5Y neuroblastoma cell viability; at 92.2 µM (top of the series);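 note: 0% = DMSO alone and -100% = 100 µM tamoxifen; nearly all actives have a fitted effect of over 55% in size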
# Outline: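 Cells were plated at 1500 per well and allowed 5 hr at 37 °C. Compounds were added across a concentration range and incubated 40 hr at 37 °C. CellTiter-Glo was added for 20 min at room temperature before luminescence reading.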
# [9] = Cell Viability - LYMP2-022 (AID 987); details: LYMP2-022 lymphoblastoid cell viability; note: potency is the fitted concentration of half-maximal effect; nearly all actives have a fitted effect of over 55% in size
# Outline: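 Cells were seeded at 2500 per well, rested 5 hr at 37 C, and treated with titrated compounds for 24 hr at 37 C. Cellular ATP was then quantified by luciferase luminescence, and AC50 values were derived from Hill-modelled concentration-response curves.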
# [10] = qHTS assay for small molecule activators of the p53 signaling pathway (AID 651743; active = well fitted activation curve with a large enough effect in the signal ratio, not every such curve was filed as active; inconclusive = small, poorly fitted or top-dose-only effect, or a change in a side signal; the % refers to the signal ratio; note: potency is the fitted concentration of half-maximal effect); details: HCT-116 p53RE-bla, beta-lactamase FRET ratio, 16 h; activation: stronger effect = higher value
# Outline: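 Agonist-mode quantitative HTS in HCT-116 cells carrying a p53-response-element beta-lactamase reporter; 16 h compound treatment at 37 C, then FRET substrate loading for 2 h at room temperature and fluorescence read.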
# [11] = target: Tumor necrosis factor (Homo sapiens) (UniProt P01375); test: qHTS assay to identify small molecules that stimulate Tumor Necrosis Factor-alpha (TNF-alpha) secretion (AID 651757; active = well fitted curve in the direction sought with a large enough effect in the signal ratio; inconclusive = small, poorly fitted or top-dose-only effect, or a change in a side signal; inactive = no such curve, though single readings can be large or run the other way; the % refers to the signal ratio; note: potency is the fitted concentration of half-maximal effect); details: Human cells, HTRF 665/615 ratio; activation (TNF-alpha secretion): at 92.2 µM (top of the series)
# Sequence of UniProt P01375 (P01375 whole entry, looked up): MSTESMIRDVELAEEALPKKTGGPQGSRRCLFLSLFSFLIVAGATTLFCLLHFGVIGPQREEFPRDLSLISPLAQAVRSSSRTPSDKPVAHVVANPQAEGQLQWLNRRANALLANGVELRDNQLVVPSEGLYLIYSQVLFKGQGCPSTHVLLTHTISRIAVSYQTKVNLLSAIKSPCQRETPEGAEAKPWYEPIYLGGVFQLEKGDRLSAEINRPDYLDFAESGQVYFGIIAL
# Outline: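 Human monocytic THP-1 cells are plated, treated with compound and held at 37 C for 17 hrs. Labeled anti-TNF-alpha antibody mixture is then added; after 3 hr at room temperature, TR-FRET signal reports secreted TNF-alpha.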
# [12] = Cell Viability - Jurkat (AID 426;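 active = dose-dependent loss of cell ATP signal giving a full or clear fitted curve, ranked by lower potency value; inconclusive = weak partial curve or response only at the top dose; inactive = no loss of viability signal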;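 note: potency is the fitted concentration of half-maximal effect; cells exposed to compound for 40 hours at 37 °C before ATP read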); details: qHTS
# Outline: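 Cells of the human T-cell leukemia line Jurkat (E6-1) are seeded at 5000 per well, treated with compound across a concentration range for 40 hours at 37 °C, then lysed with CellTiter-Glo; luminescence reports ATP.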
# [13] = Cell Viability - SK-N-SH (AID 435; calls by dose curve;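 note: potency is the fitted concentration of half-maximal effect; compound exposure lasted 40 h at 37 °C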); details: SK-N-SH neuroblastoma cell viability qHTS
# Outline: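 SK-N-SH neuroblastoma cells (1500/well) treated 40 h at 37 °C in complete medium; viability read as cellular ATP by CellTiter-Glo luminescence. Normalized to DMSO and 100 uM tamoxifen; AC50 from Hill fits of qHTS concentration-response.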
# [14] = Cell Viability - N2a (AID 540); details: N2a mouse neuroblastoma cell viability; at 92.2 µM (top of the series);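 note: cells exposed to compound for 40 h at 37 °C; plate controls were DMSO alone for no effect and tamoxifen control for full effect; nearly all actives have a fitted effect of over 45% in size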
# Outline: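 Cytotoxicity was scored as loss of cellular ATP in N2a cells, a mouse neuroblastoma line. Compounds are applied in a qHTS concentration series for 40 hr at 37 °C.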
# [15] = target: Cytochrome P450 3A4 (Homo sapiens) (UniProt P08684); test: qHTS Assay for Activators of Cytochrome P450 3A4 (AID 885); details: recombinant CYP3A4, Luciferin-PPXE luminescence, 60 min; note: potency is the fitted concentration of half-maximal effect; nearly all actives have a fitted effect of over 65% in size
# Sequence of UniProt P08684 (P08684 whole entry, looked up): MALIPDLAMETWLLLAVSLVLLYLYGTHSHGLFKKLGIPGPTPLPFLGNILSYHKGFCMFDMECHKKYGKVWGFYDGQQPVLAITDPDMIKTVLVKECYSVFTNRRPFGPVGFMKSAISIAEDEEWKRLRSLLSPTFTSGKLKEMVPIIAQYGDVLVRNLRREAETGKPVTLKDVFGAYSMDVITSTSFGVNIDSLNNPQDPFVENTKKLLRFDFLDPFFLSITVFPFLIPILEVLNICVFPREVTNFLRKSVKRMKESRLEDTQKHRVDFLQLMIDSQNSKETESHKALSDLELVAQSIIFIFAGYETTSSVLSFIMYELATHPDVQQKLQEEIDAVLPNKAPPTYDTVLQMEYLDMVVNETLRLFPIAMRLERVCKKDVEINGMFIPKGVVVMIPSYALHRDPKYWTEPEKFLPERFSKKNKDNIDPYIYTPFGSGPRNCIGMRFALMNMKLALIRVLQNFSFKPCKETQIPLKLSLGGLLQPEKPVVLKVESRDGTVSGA
# Outline: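 Activators are scored by enhanced luminescence from CYP3A4 conversion of luciferin-PPXE (25uM, equal to KM) to luciferin, after 60 min at RT with an NADPH-regenerating system.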
# [16] = qHTS of Trypanosoma Brucei Inhibitors: LOPAC Validation (AID 624147); details: purified enzyme assay, luminescence, 45 min; at 57.5 µM (top of the series); note: 0% is about no effect
# Outline: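 Luminescence from Kinase-Glo Plus, added after a 45-minute room-temperature reaction, served as the end-point read-out. The enzyme and substrate were preincubated with compound before ADP (130 uM final) initiated turnover. Concentration-effect curves came from normalized qHTS data.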
# [17] = Quantitative High-Throughput drug screen in 47 multiple myeloma cell lines against the NCATS MIPE library collection: JJN3_DSMZ cell viability assay (AID 1918966; note: potency is the fitted concentration of half-maximal effect; nearly all actives have a fitted effect of over 50% in size); details: JJN3 myeloma cells viability, CellTiter-Glo ATP, 48 h; series mostly up to 45.8 µM
# Outline: as §1
# [18] = Quantitative High-Throughput drug screen in 47 multiple myeloma cell lines against the NCATS MIPE library collection: MM1S_ATCC cell viability assay (AID 1918980); details: MM1S myeloma viability, CellTiter-Glo ATP luminescence, 48 h; series mostly up to 45.8 µM; note: potency is the fitted concentration of half-maximal effect; nearly all actives have a fitted effect of over 45% in size
# Outline: (§2)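 qHTS format: cells plated (500/well), pin-dosed with MIPE 4.0 compounds, kept 48 h at 37 °C. Readout was CellTiter-Glo luminescence, median RLU.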
# [19] = Quantitative High-Throughput drug screen in 47 multiple myeloma cell lines against the NCATS MIPE library collection: KMS28PE_JCRB cell viability assay (AID 1918983); details: KMS28PE multiple myeloma viability, CellTiter-Glo ATP, 48 h; series mostly up to 45.8 µM; note: potency is the fitted concentration of half-maximal effect; nearly all actives have a fitted effect of over 35% in size
# Outline: as §2
# [20] = Quantitative High-Throughput drug screen in 47 multiple myeloma cell lines against the NCATS MIPE library collection: XG1_PLB cell viability assay (AID 1919866); details: CellTiter-Glo ATP, 48 h; series mostly up to 45.8 µM; note: potency is the fitted concentration of half-maximal effect; nearly all actives have a fitted effect of over 35% in size
# Outline: as §2
# Tags give direction and shape of the fitted curve.
structure (smiles),measurement,setting,value
CC(C)(C)NCC(O)c1cc(O)cc(O)c1 (stereo not given),Potency,[1],"inconclusive: 0.164 µM [activator, full curve]"
same,Potency,[2],inactive
O=C(CCCCCCC(=O)Nc1ccccc1)NO,Potency,[3],active: 0.429 µM
same,Potency,[4],inactive
same,Potency,[5],"inconclusive: 36.9 µM [cytotoxic, single point]"
same,Potency,[6],active: 1.18 µM
same,Potency,[7],"inconclusive: 4.69 µM [cytotoxic, partial curve]"
NCCNc1cccc2ccccc12,"viability change, negative = cytotoxic",[8],inconclusive: -46.5%
same,Potency,[9],"inconclusive: 50.1 µM [cytotoxic, partial curve, poor fit]"
same,Potency,[10],"inconclusive: 0.0089 µM [side channel, falling, full curve, poor fit]"
same,Potency,[11],"inconclusive: 42.2 µM [rising, partial curve, poor fit]"
CC(=O)O[C@]1(C(C)=O)CC[C@H]2[C@@H]3C=C(Cl)C4=CC(=O)[C@@H]5C[C@@H]5[C@]4(C)[C@H]3CC[C@@]21C,Potency,[12],inconclusive: 121 µM [partial curve]
same,Potency,[13],inconclusive: 104 µM [single point]
same,"activity change, negative = cytotoxicity",[14],inconclusive: -31%
same,Potency,[15],"inconclusive: 2.51 µM [activator, full curve]"
same,"activity change, negative = inhibition",[16],inactive: -11.1%
CC(C)Cn1cnc2c(N)nc3ccccc3c21,Potency,[17],active: 18.7 µM
same,Potency,[18],active: 4.69 µM
same,Potency,[19],active: 23.5 µM
same,Potency,[20],"inconclusive: 0.469 µM [cytotoxic, full curve, poor fit]"
